These are yes or no findings as the source states them, for the method shown. In cells and extracts the contact can be indirect. Where a sequence is shown, tags or fusion partners need not be part of it.
Target: T1, myc-tagged PTCH1(1-1203) (UniProt Q13635)
T1 sequence: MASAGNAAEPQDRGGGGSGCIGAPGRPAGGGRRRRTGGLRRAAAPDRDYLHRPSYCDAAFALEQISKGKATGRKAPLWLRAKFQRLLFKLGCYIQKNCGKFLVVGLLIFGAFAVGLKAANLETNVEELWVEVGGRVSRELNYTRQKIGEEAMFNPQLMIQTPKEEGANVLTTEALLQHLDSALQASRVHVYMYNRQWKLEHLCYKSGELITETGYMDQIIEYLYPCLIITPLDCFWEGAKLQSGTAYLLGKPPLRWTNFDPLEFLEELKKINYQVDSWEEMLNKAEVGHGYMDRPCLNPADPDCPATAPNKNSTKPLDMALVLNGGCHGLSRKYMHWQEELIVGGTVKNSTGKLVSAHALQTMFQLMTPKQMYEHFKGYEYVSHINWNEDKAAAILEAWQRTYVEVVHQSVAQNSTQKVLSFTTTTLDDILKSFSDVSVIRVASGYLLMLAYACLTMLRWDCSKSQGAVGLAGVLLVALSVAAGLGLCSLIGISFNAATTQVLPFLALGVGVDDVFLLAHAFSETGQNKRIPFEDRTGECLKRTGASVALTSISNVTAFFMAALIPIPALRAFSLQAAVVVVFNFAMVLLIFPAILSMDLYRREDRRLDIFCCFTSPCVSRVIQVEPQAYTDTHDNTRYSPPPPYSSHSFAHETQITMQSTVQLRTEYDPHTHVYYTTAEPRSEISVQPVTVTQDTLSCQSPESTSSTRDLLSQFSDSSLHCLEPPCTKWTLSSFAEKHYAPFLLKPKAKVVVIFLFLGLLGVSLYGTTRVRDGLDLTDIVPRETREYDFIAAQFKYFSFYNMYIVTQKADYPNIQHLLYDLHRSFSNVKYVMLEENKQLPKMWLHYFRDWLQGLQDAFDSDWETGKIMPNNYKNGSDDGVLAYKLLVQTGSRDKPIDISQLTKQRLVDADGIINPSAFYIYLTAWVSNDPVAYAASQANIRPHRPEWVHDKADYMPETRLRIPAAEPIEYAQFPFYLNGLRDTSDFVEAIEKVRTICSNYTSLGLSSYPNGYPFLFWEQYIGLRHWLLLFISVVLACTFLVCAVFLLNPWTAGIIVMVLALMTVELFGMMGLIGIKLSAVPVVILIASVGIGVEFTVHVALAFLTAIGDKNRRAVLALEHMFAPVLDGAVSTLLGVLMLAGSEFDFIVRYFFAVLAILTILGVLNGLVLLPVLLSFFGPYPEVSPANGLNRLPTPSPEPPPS
Test: co-IP; HEK293 cells co-transfected with myc-PTCH1 variants and ATG101-FLAG; PTCH1 variants immunoprecipitated by the myc tag, immunoblotting; lysis buffer 50 mM Tris HCl pH 7.5, 150 mM NaCl, 1% NP-40, 0.05% sodium deoxycholate, 4 °C

B1: ATG101-FLAG (protein, UniProt Q9BSB4 1-218)
chain: MNCRSEVLEVSVEGRQVEEAMLAVLHTVLLHRSTGKFHYKKEGTYSIGTVGTQDVDCDFIDFTYVRVSSEELDRALRKVVGEFKDALRNSGGDGLGQMSLEFYQKKKSRWPFSDECIPWEVWTVKVHVVALATEQERQICREKVGEKLCEKIINIVEVMNRHEYLPKMPTQSEVDNVFDTGLRDVQPYLYKISFQITDALGTSVTTTMRRLIKDTLAL
With B1 the binding was “no binding”.
